Results taken from US20090170766A1, “Chimeric Kunitz Domains and their Use” (BAYER HEALTHCARE AG, priority 2006, published 2009).
Not every detail of the peptide structures is certain; ends, links or a residue may be inferred. Positions of bridges follow the written chain, without caps; N, C: chain ends. No end group written: not given here.

How the values were obtained:
human trypsin = test: Inhibition of trypsin, fluorogenic substrate assay; assay type: biochemical
Description: (§1) The inhibitory potency of TFPI mut3 on the enzymatic activities of trypsin, plasmin and plasma kallikrein were determined with the aid of fluorogenic substrates in biochemical assays in white 384-well microtitre plates. The assay buffer was composed of 50 mM Tris/Cl, pH 7.4, 100 mM NaCl, 5 mM CaCl2, 0.08% (w/v) BSA. The assay conditions were specifically as follows:
(§2) 10 μl of a serial dilution of TFPI mut3EA were introduced into each well and preincubated with 20 μl of enzyme at RT for 5 min. The reaction was then started by adding 20 μl of substrate to each. The measurement took place after 60-90 min in a Tecan reader with an excitation wavelength of 360 nm and an emission wavelength of 465 nm. Dose-activity plots and half-maximum inhibitory constants (IC50 values) were determined using GraphPad Prism software (version 4.02).

human plasma kallikrein = biological target: T1, human plasma kallikrein (Homo sapiens, UniProt P03952); test: Inhibition of plasma kallikrein, fluorogenic substrate assay; assay type: biochemical; details: statement referring to Table 4
T1 construct: purchased Calbiochem 420307
Description: as §1, §2

human plasmin = biological target: T2, human plasmin (Homo sapiens, UniProt P00747); test: Inhibition of plasmin, fluorogenic substrate assay; assay type: biochemical; details: statement referring to Table 4
T2 construct: enzymatic activities of trypsin, plasmin and plasma kallikrein; purchased Enzyme Research Hplas
Description: as §1, §2

[1] = system: fibrinolysis in human plasma; test: In vitro fibrinolysis model (TF/tPA, OD405); details: human citrated plasma, TF + tPA, 0.06 μM to 15 μM, compared with Trasylol
[2] = system: coagulation in human plasma; test: In vitro coagulation model (CaCl2-induced, half-maximum coagulation time); details: human citrated plasma, 12 mM CaCl2, 0.1 μM to 25 μM, compared with Trasylol
[3] = system: bleeding time in the rat in the presence of TPA; test: Rat bleeding model (tail transection, tPA infusion); assay type: in vivo; details: tPA infusion 8 mg/kg/h, compared with Trasylol
mesenteric bleeding time = test: Relative mesenteric bleeding time in rats; assay type: in vivo, Wistar rats; details: rat
[4] = system: thrombus formation in rat arteriovenous shunt; test: Rat arteriovenous (AV) shunt model, thrombus weight; assay type: in vivo; details: bolus plus infusion, compared with Trasylol

T2 sequence (P00747 581-810 limits assumed): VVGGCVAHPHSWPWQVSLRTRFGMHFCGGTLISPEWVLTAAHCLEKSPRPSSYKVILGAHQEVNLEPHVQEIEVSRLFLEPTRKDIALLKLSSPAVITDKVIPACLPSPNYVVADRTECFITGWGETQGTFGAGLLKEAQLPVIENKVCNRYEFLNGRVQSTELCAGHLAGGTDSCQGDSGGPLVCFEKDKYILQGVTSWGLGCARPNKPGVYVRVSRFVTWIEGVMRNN
T2 sequence (P00747 97-580 partner limits assumed): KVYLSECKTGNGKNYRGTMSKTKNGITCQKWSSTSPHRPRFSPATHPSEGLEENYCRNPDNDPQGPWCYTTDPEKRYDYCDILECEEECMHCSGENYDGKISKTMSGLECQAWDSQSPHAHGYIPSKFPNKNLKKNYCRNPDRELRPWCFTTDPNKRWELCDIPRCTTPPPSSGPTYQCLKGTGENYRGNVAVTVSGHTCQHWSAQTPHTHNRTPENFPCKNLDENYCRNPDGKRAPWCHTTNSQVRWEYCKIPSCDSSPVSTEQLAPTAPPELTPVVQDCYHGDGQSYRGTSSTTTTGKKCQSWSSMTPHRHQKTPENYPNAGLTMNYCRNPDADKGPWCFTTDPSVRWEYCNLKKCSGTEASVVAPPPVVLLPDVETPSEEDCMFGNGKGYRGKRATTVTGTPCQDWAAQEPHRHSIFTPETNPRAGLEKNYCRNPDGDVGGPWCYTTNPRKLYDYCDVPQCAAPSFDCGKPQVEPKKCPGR
T1 sequence (P03952 391-638 limits assumed): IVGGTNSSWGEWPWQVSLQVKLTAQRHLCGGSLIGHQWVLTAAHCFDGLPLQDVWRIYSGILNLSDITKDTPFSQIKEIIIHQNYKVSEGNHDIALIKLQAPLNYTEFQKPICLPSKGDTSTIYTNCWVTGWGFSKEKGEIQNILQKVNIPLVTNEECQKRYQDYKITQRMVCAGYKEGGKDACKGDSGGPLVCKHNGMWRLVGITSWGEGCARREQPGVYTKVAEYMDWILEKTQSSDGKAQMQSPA
T1 sequence (P03952 20-390 partner limits assumed): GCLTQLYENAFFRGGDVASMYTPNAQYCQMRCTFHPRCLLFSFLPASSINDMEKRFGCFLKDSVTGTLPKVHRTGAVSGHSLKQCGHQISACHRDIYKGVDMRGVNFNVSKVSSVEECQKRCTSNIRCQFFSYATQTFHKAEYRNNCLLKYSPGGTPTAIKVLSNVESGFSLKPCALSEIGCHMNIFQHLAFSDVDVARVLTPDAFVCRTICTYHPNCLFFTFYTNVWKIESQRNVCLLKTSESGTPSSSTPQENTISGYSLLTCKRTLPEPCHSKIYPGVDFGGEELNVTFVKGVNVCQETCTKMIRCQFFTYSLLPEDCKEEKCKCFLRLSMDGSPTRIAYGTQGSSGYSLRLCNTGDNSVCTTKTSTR

## MHSFCAFKADDGPCRAAHPRWWFNIFTRQCEEFIYGGCEGNQNRFESLEECKKMCTRD (disulfide 5-55, 14-38, 30-51) [SEQ ID NO: 8]
Human trypsin
  IC50: 266 nM

## EAMHSFCAFKAVTGPCRASFPRWFFNIFTRQCEEFIYGGCEGNQNRFESLEECKKMCTRD (disulfide 7-57, 16-40, 32-53) [SEQ ID NO: 29]
Human trypsin
  IC50: 4 nM

## MHSFCAFKADDGPCKAIMKRFFFNIFTRQCEEFIYGGCEGNQNRFESLEECKKMCTRD (disulfide 5-55, 14-38, 30-51) [hTFPI D1, reference compound]
Human plasma kallikrein
  inhibition of plasma kallikrein (in words): no inhibitory effect on plasma kallikrein
Human trypsin
  IC50: 44 nM
Human plasmin
  inhibition of plasmin (in words): considerably weaker inhibitor of plasmin

## EAMHSFCAFKAETGPCRAAHPRWFFNIFTRQCEEFIYGGCEGNQNRFESLEECKKMCTRD (disulfide 7-57, 16-40, 32-53) [SEQ ID NO: 19]
[1]
  antifibrinolytic activity: comparable to that of Trasylol
[2]
  anticoagulant activity: increased
Human trypsin
  IC50: 5 nM
[3]
  haemostatic effect (shortening of the bleeding time): comparable to that of Trasylol

## EAMHSFCAFKAETGPCRAAHPRWWFNIFTRQCEEFIYGGCEGNQNRFESLEECKKMCTRD (disulfide 7-57, 16-40, 32-53) [SEQ ID NO: 20]
[1]
  antifibrinolytic activity: comparable to that of Trasylol
[2]
  anticoagulant activity: slightly increased
Mesenteric bleeding time; 5 mg/kg as bolus and 10 mg/kg/h as infusion
  reduction of mesenteric bleeding time: 23.6%
Mesenteric bleeding time; 5 mg/kg as bolus and 30 mg/kg/h as infusion
  reduction of mesenteric bleeding time: 31.7%
Mesenteric bleeding time; bolus plus infusion, dose series
  effect on mesenteric bleeding time (overall): reduced the mesenteric bleeding time in a similar manner to Trasylol
Human trypsin
  IC50: 7 nM
[4]
  antithrombotic effect (reduction in the thrombus weight): comparable to that of Trasylol
[3]
  haemostatic effect (shortening of the bleeding time): comparable to that of Trasylol

## EAMHSFCAFKAVTGPCRAAMKRFWFNIFTRQCEEFIYGGCEGNQNRFESLEECKKMCTRD (disulfide 7-57, 16-40, 32-53) [SEQ ID NO: 31]
Human trypsin
  IC50: 1 nM

## MHSFCAFKAETGPCRAAHPRWFFNIFTRQCEEFIYGGCEGNQNRFESLEECKKMCTRD (disulfide 5-55, 14-38, 30-51) [SEQ ID NO: 4]
Human trypsin
  IC50: 5 nM

## EAMHSFCAFKAYTGPCRAAIIRFFFNIFTRQCEEFIYGGCEGNQNRFESLEECKKMCTRD (disulfide 7-57, 16-40, 32-53) [SEQ ID NO: 28]
Human trypsin
  IC50: 17 nM

## EAMHSFCAFKASTGPCKARIIRFFFNIFTRQCEEFIYGGCEGNQNRFESLEECKKMCTRD (disulfide 7-57, 16-40, 32-53) [SEQ ID NO: 30]
Human trypsin
  IC50: 21 nM

## MHSFCAFKADDGPCKAIMKRFWFNIFTRQCEEFIYGGCEGNQNRFESLEECKKMCTRD (disulfide 5-55, 14-38, 30-51) [SEQ ID NO: 9]
Human trypsin
  IC50: 36 nM

## EAMHSFCAFKAVTGPCKARIIRFFFNIFTRQCEEFIYGGCEGNQNRFESLEECKKMCTRD (disulfide 7-57, 16-40, 32-53) [SEQ ID NO: 18]
Human trypsin
  IC50: 20 nM

## EAMHSFCAFKAYTGPCKARIIRFFFNIFTRQCEEFIYGGCEGNQNRFESLEECKKMCTRD (disulfide 7-57, 16-40, 32-53) [SEQ ID NO: 25]
Human trypsin
  IC50: 38 nM

## MHSFCAFKADDGPCRAAMKRFFFNIFTRQCEEFIYGGCEGNQNRFESLEECKKMCTRD (disulfide 5-55, 14-38, 30-51) [SEQ ID NO: 7]
Human trypsin
  IC50: 19 nM

## MHSFCAFKAETGPCRAAMKRFFFNIFTRQCEEFIYGGCEGNQNRFESLEECKKMCTRD (disulfide 5-55, 14-38, 30-51) [SEQ ID NO: 10]
Human trypsin
  IC50: 6 nM

## EAMHSFCAFKAYTGPCKAAIIRFFFNIFTRQCEEFIYGGCEGNQNRFESLEECKKMCTRD (disulfide 7-57, 16-40, 32-53) [SEQ ID NO: 26]
Human trypsin
  IC50: 64 nM
